Assay results: PubChem BioAssay AID743279 (National Center for Advancing Translational Sciences (NCATS), 2014)
Among all 360,000 compounds or so, about 17,000 (4.7%) were called active. Inconclusive means that the source gave no clear call. Such entries were picked first, then a sample of the others. Cut-off read from the data, not from the text of the source: active = activity change below about -50%; inconclusive = mostly about -30% to -49%; inactive = weaker than that.

assay: qHTS for Inhibitors of Inflammasome Signaling: IL-1-beta AlphaLISA Primary Screen; details: THP-1 LPS/ATP IL-1B secretion, 16 h; at 57.5 µM, active compounds read low
How it was run: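 THP-1 cells pretreated 1 hr with compounds (up to 57.5 uM final), then stimulated with LPS (250 ng/mL final) plus ATP (1.25 mM final); secreted IL-1B measured by AlphaLISA after 16 hr, decreased signal indicating inhibition.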
% is set by controls: 0 for no effect and ±100 for the full control effect.

Row | SMILES | activity change
1 | O=C(NC(c1ccc(Cl)cc1)c1cnccn1)C1CCN(CCOc2ccc(F)cc2)CC1 (configuration not stated) | inconclusive: -34%
2 | N#Cc1nc(COc2ccccc2)oc1N1CCC(Cc2ccccc2)CC1 | active: -54.7%
3 | OCCCc1nc2ccccc2[nH]1 | inactive: -2.37%
4 | COc1cccc(NC(=O)c2sc(Cl)nc2C)c1 | inconclusive: -44.9%
5 | COc1ccc(C2C(Oc3ccccc3)C(=O)N2c2cc(C)ccc2C)cc1OC (configuration not stated) | inconclusive: -30.9%
6 | Cn1c(=O)n(Cc2ccc(F)cc2)c(=O)c2c1nc1n2CCCN1Cc1ccccc1 | inconclusive: -33.5%
7 | COc1ccc(S(=O)(=O)N(C)C[C@H]2Oc3ncc(-c4ccncc4)cc3C(=O)N([C@@H](C)CO)C[C@@H]2C)cc1 | inconclusive: -30.2%
8 | CCOc1ccc(S(=O)(=O)N(CC(=O)NC2CCCCC2C)Cc2ccco2)cc1 (configuration not stated) | inconclusive: -40.2%
9 | CCCCCCCCCCOC(=O)Cn1c(COc2cccc(C)c2)[n+](C)c2ccccc21 | active: -96.5%
10 | Cc1ccc(OCCSc2nc3ncnc(N)c3[nH]2)cc1 | inactive: -7.61%
11 | CC1CCN(S(=O)(=O)c2ccc(NC(=O)C3CSC4(C)CCC(=O)N34)cc2)CC1 (configuration not stated) | inactive: -5.76%
12 | Cc1ccc(Nc2nnc(SCC(=O)Nc3cccnc3Cl)s2)cc1C | inconclusive: -42.9%
13 | O=C(C[C@H]1C[C@H](C(=O)N2CCOCC2)[C@@]2(CCC3CCCC3)c3[nH]c4cc(-c5ccco5)ccc4c3CCN2C1=O)NCCCn1ccnc1 | inconclusive: -41%
14 | COc1cccc(-n2nc(-c3ccnn3-c3cccc(Cl)c3)c(=O)n(C)c2=O)c1 | inconclusive: -38.6%
15 | CCCn1c(=NC(=O)c2ccco2)c(C(=O)OCC)cc2c(=O)n3ccccc3nc21 | inconclusive: -47.2%
16 | COc1ccc(Nc2nnc(-c3ccc(O)cc3)c3ccccc23)cc1C(N)=O | inactive: 8.14%
17 | O=C(c1ccc(COc2c(F)c(F)c(F)c(F)c2F)o1)N1CCN(Cc2ccc3c(c2)OCO3)CC1 | inconclusive: -39.3%
18 | CCN(CC)CCNc1nc(C(F)(F)F)nc2c1nnn2Cc1ccccc1 | active: -60.2%
19 | CCN(C(=O)COC(=O)c1ccc(Cl)c(S(=O)(=O)N2CCCCC2)c1)C1CCS(=O)(=O)C1 (configuration not stated) | inactive: 17.7%
20 | CCCCn1c(N)c(N(CC)C(=O)c2ccc(-c3ccc(Cl)cc3)o2)c(=O)[nH]c1=O | inactive: -23.5%
21 | COc1ccc(CN(Cc2nc3ccccc3c(=O)[nH]2)C(=O)c2ccco2)cc1 | inactive: 22.6%

Row | SMILES | activity change
22 | Cc1ccccc1NC(=S)N(Cc1ccccc1)Cc1cccnc1 | active: -60.2%
23 | CCn1cc([N+](=O)[O-])c(C(=O)N2CCCC2)n1 | inactive: 9.31%
24 | CC(=O)Nc1ccccc1NC(=O)COc1cccc2ccccc12 | inconclusive: -35.8%
25 | COC(=O)c1cc(C)nc2c1C(=O)C(=O)C=C2N1CCOCC1 | active: -99.8%
26 | O=S(=O)(c1ccc2c(c1)OCCO2)N1CCN(Cc2ccc3c(c2)OCO3)CC1 | inactive: 64.8%
27 | CN(CC(=O)Nc1ccccc1Br)CC(=O)NC(c1ccccc1)c1ccccc1 | active: -50.7%
28 | CC(C)(C)OC(=O)N[C@@H](Cc1ccccc1)c1nnc(SCC(N)=O)o1 | inactive: 9.26%
29 | CN(C)c1ccc(CNC(=O)C2(C)Cc3c(-c4ccc(N(C)C)cc4)ccnc3O2)cc1 (configuration not stated) | inactive: -19%
30 | COCCNC(=O)C(C)N1c2cccc3cccc(c23)S1(=O)=O (configuration not stated) | inconclusive: -34.6%
31 | C[C@H](CO)N1C[C@H](C)[C@@H](CN(C)Cc2ccc3c(c2)OCO3)Oc2c(NC(=O)C3CCCCC3)cccc2C1=O | inconclusive: -48.8%
32 | O=C(NCCc1cccs1)c1ccc(Cl)c(Cl)c1 | inconclusive: -32.6%
33 | CC(C)CC(COCc1ccc(Cl)cc1)N1CCN(C(=O)c2ccc(C(F)(F)F)cc2)CCC1=O (configuration not stated) | inconclusive: -36.6%
34 | COc1ccc(NC(=S)N(CCCN2CCC(C)CC2)Cc2cccs2)cc1Cl | inconclusive: -37.7%
35 | CC(=O)c1ccc(N2CCN(c3ncc(C(F)(F)F)cc3Cl)CC2)cc1 | inconclusive: -42.6%
36 | CCC(C(=O)NCc1ccc(F)cc1)N(Cc1ccco1)C(=O)c1snc(C(N)=O)c1N (configuration not stated) | inactive: -1.44%
37 | CC(C)n1c(N2CCN(C(=O)Nc3ccc(F)cc3F)CC2)nc2ccccc21 | inconclusive: -37.6%
38 | CCc1c(C)sc(NC(=S)N2CCN(S(C)(=O)=O)CC2)c1C(=O)OC | inconclusive: -31.2%
39 | Cc1ccccc1C(=O)Nc1cc(-c2cc(C(C)(C)C)oc2C)nn1C | active: -59.1%
40 | CCCCn1nc(C(=O)N[C@@H](CCSC)c2nc3ccccc3[nH]2)c2ccccc2c1=O | inactive: -21.1%
41 | c1ccc2c(-c3[nH]ncc3CNCCCn3ncc4ccccc43)cccc2c1 | inconclusive: -35.8%
42 | O=C(CN1CCN(c2ncc(C(F)(F)F)cc2Cl)CC1)Nc1ccc2c(c1)OCO2 | active: -50.6%

Row | SMILES | activity change
43 | CCOC(=O)c1cc2c(ccn2C)n1CC(=O)N1CCC(C)CC1 | inconclusive: -30.1%
44 | CCOC(=O)c1nc2sc3c(c2c(=O)n1C(C)C(=O)OCC)CCCC3 (configuration not stated) | inconclusive: -30.2%
45 | Cc1ccc(-c2nc3ccccc3[nH]2)cc1NC(=S)NC(=O)c1ccccc1Br | active: -56.2%
46 | Cc1cccc(-n2c3nc(=O)[nH]c(=O)c-3cc3cc([N+](=O)[O-])ccc32)c1 | active: -101%
47 | CCOc1ccc(CCNC(=O)CCS(=O)(=O)c2ccc(Cl)cc2)cc1OCC | inactive: 3.02%
48 | Cc1ccc(NC(=O)Nc2cccs2)nc1 | inactive: 8.04%
49 | O=C(Nc1ccccc1Br)C1CCN(S(=O)(=O)c2cccs2)CC1 | inconclusive: -37.7%
50 | Cc1ccc(C(=O)Nc2ccc(Cc3ccncc3)cc2)cc1[N+](=O)[O-] | inconclusive: -42.1%
51 | COc1cc2c(cc1OC)-c1cc(Nc3cccc(C)c3)nc(=O)n1CC2 | inconclusive: -33.6%
52 | COc1ccccc1CCC(=O)Nc1cc(S(=O)(=O)N2CCOCC2)ccc1N1CCCC1 | inactive: -24.3%
53 | COCc1[nH]nc2c1C(c1ccc(OC)c(OC)c1)C(C#N)=C(N)O2 (configuration not stated) | inconclusive: -41.2%
54 | Nc1sc(-c2ccccc2)n[n+]1Cc1cccc2cccnc12 | inconclusive: -32%
55 | Cc1ccc(S(=O)(=O)N2C[C@@H]3CCCC[C@@H]3[C@@H](C)[C@H]2c2cn(Cc3ccccc3)c3ncccc23)cc1 | inactive: -0.677%
56 | COC(=O)[C@@]12C[C@@H](CC(=O)N3CCCC3)C(=O)N(CCc3ccc(OC)c(OC)c3)C1=CCC(C)(C)C2 | inactive: -4.85%
57 | CCOc1cc(/C=N/NC(=O)CN2CCOCC2)ccc1OCc1ccc(Cl)cc1 | inconclusive: -48.6%
58 | O=C(NCc1cccnc1)Nc1ccc(Br)cc1Cl | inconclusive: -41.7%
59 | CC(C)NC(=O)N1Cc2cc(C(=O)NC3CCCCC3)nc(-c3cccc(-c4cccnc4)c3)c2[C@@H]1CCO | inconclusive: -30.1%
60 | O=S(=O)(NCCCN1CCOCC1)c1ccc2ccccc2c1 | inactive: -21.8%
61 | O=C(NCc1ccccc1F)C(c1ccccc1)c1ccccc1 | inconclusive: -37%
62 | CC(C)N=C1CCCC1C(=S)SSC(=S)C1CCCC1=NC(C)C (configuration not stated) | active: -104%
63 | CC(C)N1CC(C(=O)Nc2ccc(Br)c(Cl)c2)CC1=O (configuration not stated) | inconclusive: -34.8%

Row | SMILES | activity change
64 | O=C(COc1ccc(Cl)cc1)N/N=C/CCc1ccccc1 | inactive: -3.5%
65 | CCn1c2ccccc2c2nc3cc(S(=O)(=O)N4CCOCC4)ccc3nc21 | inconclusive: -35%
66 | Nc1nonc1-n1nnc(C(=O)N/N=C/c2cccc(Cl)c2)c1-c1cccs1 | inconclusive: -36.2%
67 | CN(C)c1ccc(CNC(=O)CC[C@H]2O[C@@H](n3cnc4c(NC(=O)c5ccccc5)ncnc43)[C@H](O)[C@@H]2O)cc1 | inconclusive: -32.3%
68 | COc1ccc(OCCOC(=O)C(C)NS(=O)(=O)c2ccc(NC(C)=O)cc2)cc1 (configuration not stated) | active: -77.1%
69 | CC(Nc1cc(C)cc(C)c1)=[N+](C)CCNS(=O)(=O)c1ccc(Cl)cc1 | active: -78.7%
70 | CCOc1ccc(-c2nnn(CC(=O)Nc3cc(OC)cc(OC)c3)n2)cc1OCC | inactive: 10.2%
71 | Cc1cc(=O)n2c3ccccc3n(CC(O)CN3CCC(C)CC3)c2c1C#N (configuration not stated) | inactive: -16.4%
72 | CC(C)(C)c1ccccc1OCCOCCN1CCCCCC1 | active: -61.6%
73 | Cc1ccccc1C(=O)NC(=S)N(C)CCc1ccccn1 | inactive: -3.3%
74 | CSCC[C@H](NC(=O)N1CCn2c1nc1ccccc12)C(=O)NCc1ccco1 | inconclusive: -30.8%
75 | Cc1cnc(-c2nc3ccccc3n2C(C(=O)Nc2c(C)cccc2C)C2CC2)cn1 (configuration not stated) | inactive: 15.4%
76 | CC1(C)S[C@@H]2[C@H](NC(=O)[C@H](N)c3ccccc3)C(=O)N2[C@H]1C(=O)OC1OC(=O)c2ccccc21 (some centres not stated) | active: -56.4%
77 | COc1cccc(CNc2nc3ccccc3n2C)c1O | inconclusive: -32.3%
78 | COc1cc(/C=N/N=C(/C(=O)c2ccccc2)c2ccccc2)cc(OC)c1O | inconclusive: -43.3%
79 | C=CC[C@@H](Cc1ccc(F)cc1)C(=O)OC[C@@H]1CCCN1C(=O)[C@@H](CC=C)CC(=O)N[C@H](CO)Cc1ccccc1 | inconclusive: -31.2%
80 | O=C(C1CC1)N1CCN=C1SCc1ccc(Cl)cc1 | inconclusive: -44.7%
81 | CCCCN(C(=O)CSc1c(C)c(C)cc(C)c1C)c1c(N)n(CCC)c(=O)[nH]c1=O | inconclusive: -31%
82 | NS(=O)(=O)c1ccc(CNc2nc(-c3cccnc3)nc3ccccc23)cc1 | inconclusive: -42.2%
